Many values rest on one well or one pass, so single values are uncertain.
Key:
CHO-K1 [1] = experiment: hypodiploid nuclei frequency (% of nucleated events); higher = more hypodiploid events (aneugenic)
Protocol: (§1)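 Flow-cytometric in vitro micronucleus assay (Litron MicroFlow) in CHO-K1 cells in 96-well plates, 19 concentrations (4.5-200 µM, n=1 per concentration). Without S9, cells were exposed for 24 h and sampled at 48 h. With Aroclor 1254-induced rat liver S9, cells were exposed for 3-4 h and sampled at 27-28 h. Read-outs are %MN and %hypodiploid nuclei relative to nucleated events, and relative survival as the nuclei-to-bead ratio versus the 1% DMSO vehicle control (x100).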

CHO-K1 [2] = experiment: micronucleus frequency (% of nucleated events); higher = more micronuclei (genotoxic)
CHO-K1 [3] = experiment: relative survival (nuclei to bead ratio vs DMSO control) (% of vehicle control); higher = more surviving cells
Protocol: as §1
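For hypodiploid nuclei frequency (% of nucleated events) in this document: hypodiploid nuclei gated on a flow cytometer with 488 nm excitation after SYTOX Green staining, cultures at 37 °C, positive controls vinblastine without S9 and cyclophosphamide with S9.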
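For micronucleus frequency (% of nucleated events) in this document: cells lysed with nuclei stained by SYTOX Green, then micronucleus-gated events counted against nucleated events by flow cytometry with 488 nm excitation.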
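For relative survival (nuclei to bead ratio vs DMSO control) in this document: Lysed-cell nuclei stained with SYTOX Green and counted against counting beads by flow cytometry at 488 nm excitation, with vinblastine (no S9) and cyclophosphamide (plus S9) as positive controls.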

CCCc1cc(=O)[nH]c(=S)[nH]1 [6-Propyl-2-thiouracil]
Conditions | hypodiploid nuclei frequency, CHO-K1 [1] [%] | micronucleus frequency, CHO-K1 [2] [%] | relative survival, CHO-K1 [3]
concentration: 4.5 (µM), S9 metabolic activation: with S9, exposure time: 3-4 hours | 0.16 | 1.08 | 75
concentration: 4.5 (µM), S9 metabolic activation: without S9, exposure time: 24 hours | 0.64 | 1.8 | 110
concentration: 5.63 (µM), S9 metabolic activation: with S9, exposure time: 3-4 hours | 0.28 | 1.12 | 80.5
concentration: 5.63 (µM), S9 metabolic activation: without S9, exposure time: 24 hours | 0.56 | 2.26 | 133
concentration: 7.04 (µM), S9 metabolic activation: with S9, exposure time: 3-4 hours | 0.12 | 1.14 | 80.8
concentration: 7.04 (µM), S9 metabolic activation: without S9, exposure time: 24 hours | 0.36 | 1.54 | 132
concentration: 8.8 (µM), S9 metabolic activation: with S9, exposure time: 3-4 hours | 0.28 | 0.92 | 83
concentration: 8.8 (µM), S9 metabolic activation: without S9, exposure time: 24 hours | 0.58 | 2.3 | 131
concentration: 11 (µM), S9 metabolic activation: with S9, exposure time: 3-4 hours | 0.2 | 0.98 | 101
concentration: 11 (µM), S9 metabolic activation: without S9, exposure time: 24 hours | 0.66 | 2.06 | 108
concentration: 13.7 (µM), S9 metabolic activation: with S9, exposure time: 3-4 hours | 0.16 | 0.98 | 89.8
concentration: 13.7 (µM), S9 metabolic activation: without S9, exposure time: 24 hours | 0.54 | 3.66 | 113
concentration: 17.2 (µM), S9 metabolic activation: with S9, exposure time: 3-4 hours | 0.34 | 1.22 | 110
concentration: 17.2 (µM), S9 metabolic activation: without S9, exposure time: 24 hours | 0.52 | 2.78 | 110
concentration: 21.5 (µM), S9 metabolic activation: with S9, exposure time: 3-4 hours | 0.24 | 1.38 | 98.7
concentration: 21.5 (µM), S9 metabolic activation: without S9, exposure time: 24 hours | 0.26 | 1.84 | 96.4
concentration: 26.8 (µM), S9 metabolic activation: with S9, exposure time: 3-4 hours | 0.18 | 1.44 | 87.2
concentration: 26.8 (µM), S9 metabolic activation: without S9, exposure time: 24 hours | 0.46 | 1.36 | 87.8
concentration: 33.6 (µM), S9 metabolic activation: with S9, exposure time: 3-4 hours | 0.26 | 1.2 | 88.7
concentration: 33.6 (µM), S9 metabolic activation: without S9, exposure time: 24 hours | 0.4 | 1.88 | 124
concentration: 41.9 (µM), S9 metabolic activation: with S9, exposure time: 3-4 hours | 0.24 | 1.16 | 80.8
concentration: 41.9 (µM), S9 metabolic activation: without S9, exposure time: 24 hours | 0.44 | 1.46 | 109
concentration: 52.4 (µM), S9 metabolic activation: with S9, exposure time: 3-4 hours | 0.18 | 1.38 | 93.8
concentration: 52.4 (µM), S9 metabolic activation: without S9, exposure time: 24 hours | 0.62 | 2.16 | 118
concentration: 65.5 (µM), S9 metabolic activation: with S9, exposure time: 3-4 hours | 0.64 | 2.64 | 91.8
concentration: 65.5 (µM), S9 metabolic activation: without S9, exposure time: 24 hours | 0.6 | 1.98 | 98.9
concentration: 81.9 (µM), S9 metabolic activation: with S9, exposure time: 3-4 hours | 0.22 | 2 | 88.7
concentration: 81.9 (µM), S9 metabolic activation: without S9, exposure time: 24 hours | 0.44 | 1.5 | 114
concentration: 102 (µM), S9 metabolic activation: with S9, exposure time: 3-4 hours | 0.26 | 1.24 | 72.7
concentration: 102 (µM), S9 metabolic activation: without S9, exposure time: 24 hours | 0.58 | 2.52 | 109
concentration: 128 (µM), S9 metabolic activation: with S9, exposure time: 3-4 hours | 0.28 | 0.78 | 89.1
concentration: 128 (µM), S9 metabolic activation: without S9, exposure time: 24 hours | 1.16 | 2.24 | 88.2
concentration: 160 (µM), S9 metabolic activation: with S9, exposure time: 3-4 hours | 0.3 | 2.38 | 94.7
concentration: 160 (µM), S9 metabolic activation: without S9, exposure time: 24 hours | 0.78 | 2.86 | 104
concentration: 200 (µM), S9 metabolic activation: with S9, exposure time: 3-4 hours | 0.26 | 2.16 | 86.1
concentration: 200 (µM), S9 metabolic activation: without S9, exposure time: 24 hours | 1.08 | 2.54 | 79.3

CSC(C)(C)/C=N/O [Aldicarb oxime]
Conditions | hypodiploid nuclei frequency, CHO-K1 [1] [%] | micronucleus frequency, CHO-K1 [2] [%] | relative survival, CHO-K1 [3]
concentration: 4.5 (µM), S9 metabolic activation: with S9, exposure time: 3-4 hours | 0.22 | 1.66 | 138
concentration: 4.5 (µM), S9 metabolic activation: without S9, exposure time: 24 hours | 0.54 | 1.42 | 173
concentration: 5.63 (µM), S9 metabolic activation: with S9, exposure time: 3-4 hours | 0.2 | 1.3 | 96.8
concentration: 5.63 (µM), S9 metabolic activation: without S9, exposure time: 24 hours | 0.36 | 1.7 | 170
concentration: 7.04 (µM), S9 metabolic activation: with S9, exposure time: 3-4 hours | 0.32 | 1.02 | 121
concentration: 7.04 (µM), S9 metabolic activation: without S9, exposure time: 24 hours | 0.44 | 1.12 | 130
concentration: 8.8 (µM), S9 metabolic activation: with S9, exposure time: 3-4 hours | 0.22 | 1.1 | 106
concentration: 8.8 (µM), S9 metabolic activation: without S9, exposure time: 24 hours | 0.4 | 1.06 | 154
concentration: 11 (µM), S9 metabolic activation: with S9, exposure time: 3-4 hours | 0.22 | 1.16 | 112
concentration: 11 (µM), S9 metabolic activation: without S9, exposure time: 24 hours | 0.36 | 1.08 | 140
concentration: 13.7 (µM), S9 metabolic activation: with S9, exposure time: 3-4 hours | 0.24 | 1.04 | 130
concentration: 13.7 (µM), S9 metabolic activation: without S9, exposure time: 24 hours | 0.2 | 1.12 | 117
concentration: 17.2 (µM), S9 metabolic activation: with S9, exposure time: 3-4 hours | 0.4 | 1.38 | 144
concentration: 17.2 (µM), S9 metabolic activation: without S9, exposure time: 24 hours | 0.3 | 1.14 | 147
concentration: 21.5 (µM), S9 metabolic activation: with S9, exposure time: 3-4 hours | 0.26 | 1.28 | 122
concentration: 21.5 (µM), S9 metabolic activation: without S9, exposure time: 24 hours | 0.56 | 1.18 | 115
concentration: 26.8 (µM), S9 metabolic activation: with S9, exposure time: 3-4 hours | 0.24 | 1.12 | 125
concentration: 26.8 (µM), S9 metabolic activation: without S9, exposure time: 24 hours | 0.56 | 1.18 | 153
concentration: 33.6 (µM), S9 metabolic activation: with S9, exposure time: 3-4 hours | 0.48 | 1.66 | 109
concentration: 33.6 (µM), S9 metabolic activation: without S9, exposure time: 24 hours | 0.4 | 0.96 | 139
concentration: 41.9 (µM), S9 metabolic activation: with S9, exposure time: 3-4 hours | 0.22 | 1.22 | 144
concentration: 41.9 (µM), S9 metabolic activation: without S9, exposure time: 24 hours | 0.82 | 1.3 | 186
concentration: 52.4 (µM), S9 metabolic activation: with S9, exposure time: 3-4 hours | 0.32 | 1.02 | 110
concentration: 52.4 (µM), S9 metabolic activation: without S9, exposure time: 24 hours | 0.6 | 1.4 | 145
concentration: 65.5 (µM), S9 metabolic activation: with S9, exposure time: 3-4 hours | 0.34 | 0.74 | 132
concentration: 65.5 (µM), S9 metabolic activation: without S9, exposure time: 24 hours | 0.6 | 1.52 | 108
concentration: 81.9 (µM), S9 metabolic activation: with S9, exposure time: 3-4 hours | 0.32 | 1.18 | 109
concentration: 81.9 (µM), S9 metabolic activation: without S9, exposure time: 24 hours | 0.72 | 1.4 | 135
concentration: 102 (µM), S9 metabolic activation: with S9, exposure time: 3-4 hours | 0.26 | 1.52 | 111
concentration: 102 (µM), S9 metabolic activation: without S9, exposure time: 24 hours | 0.56 | 1.3 | 113
concentration: 128 (µM), S9 metabolic activation: with S9, exposure time: 3-4 hours | 0.26 | 1.14 | 115
concentration: 128 (µM), S9 metabolic activation: without S9, exposure time: 24 hours | 0.64 | 1.48 | 136
concentration: 160 (µM), S9 metabolic activation: with S9, exposure time: 3-4 hours | 0.2 | 1.88 | 109
concentration: 160 (µM), S9 metabolic activation: without S9, exposure time: 24 hours | 0.8 | 1.7 | 167
concentration: 200 (µM), S9 metabolic activation: with S9, exposure time: 3-4 hours | 0.3 | 1.34 | 127
concentration: 200 (µM), S9 metabolic activation: without S9, exposure time: 24 hours | 1 | 2.22 | 124

— the supplement of paper PMC9151546
